In PMC11832431 (MedComm, 2025):
Results are given in words; binding and its absence hold for the method and conditions named. For some assays here: In cells and extracts the contact can be indirect. Some entries that bind do so weakly or less than the wild type. For some assays here: Sequences can lack the tags named with a protein.

Sequences of proteins named here, by UniProt entry; tags and fusion partners are left off.
UniProt P11802: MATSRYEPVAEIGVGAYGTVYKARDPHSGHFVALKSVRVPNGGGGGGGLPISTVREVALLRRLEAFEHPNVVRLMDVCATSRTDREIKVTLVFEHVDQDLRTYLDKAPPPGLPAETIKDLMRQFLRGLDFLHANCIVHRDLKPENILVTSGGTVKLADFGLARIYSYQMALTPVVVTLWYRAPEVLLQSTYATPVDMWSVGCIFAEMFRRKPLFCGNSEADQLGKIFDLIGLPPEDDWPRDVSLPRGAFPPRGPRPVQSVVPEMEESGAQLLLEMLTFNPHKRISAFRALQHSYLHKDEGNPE
UniProt Q00534: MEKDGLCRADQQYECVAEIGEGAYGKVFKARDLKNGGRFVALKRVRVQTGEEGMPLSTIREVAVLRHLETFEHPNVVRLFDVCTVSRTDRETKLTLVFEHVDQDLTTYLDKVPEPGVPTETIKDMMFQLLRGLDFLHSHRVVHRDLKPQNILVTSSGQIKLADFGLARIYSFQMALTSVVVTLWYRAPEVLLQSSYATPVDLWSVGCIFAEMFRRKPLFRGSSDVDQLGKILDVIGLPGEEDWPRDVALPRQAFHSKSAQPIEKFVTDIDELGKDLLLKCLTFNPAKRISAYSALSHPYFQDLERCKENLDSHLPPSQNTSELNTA

Columns and labels:
[1] = biological target: GST-CDK4 (cyclin-dependent kinase 4) (UniProt P11802); assay: pull-down; purified recombinant GST or GST fusion protein incubated in vitro (cell-free) with purified recombinant His-tagged protein; blot and Coomassie blue staining; both purified
[2] = biological target: T1, GST-DUB3 (deubiquitinating enzyme 3), wild type (UniProt Q6R6M4); assay: as above
T1 sequence: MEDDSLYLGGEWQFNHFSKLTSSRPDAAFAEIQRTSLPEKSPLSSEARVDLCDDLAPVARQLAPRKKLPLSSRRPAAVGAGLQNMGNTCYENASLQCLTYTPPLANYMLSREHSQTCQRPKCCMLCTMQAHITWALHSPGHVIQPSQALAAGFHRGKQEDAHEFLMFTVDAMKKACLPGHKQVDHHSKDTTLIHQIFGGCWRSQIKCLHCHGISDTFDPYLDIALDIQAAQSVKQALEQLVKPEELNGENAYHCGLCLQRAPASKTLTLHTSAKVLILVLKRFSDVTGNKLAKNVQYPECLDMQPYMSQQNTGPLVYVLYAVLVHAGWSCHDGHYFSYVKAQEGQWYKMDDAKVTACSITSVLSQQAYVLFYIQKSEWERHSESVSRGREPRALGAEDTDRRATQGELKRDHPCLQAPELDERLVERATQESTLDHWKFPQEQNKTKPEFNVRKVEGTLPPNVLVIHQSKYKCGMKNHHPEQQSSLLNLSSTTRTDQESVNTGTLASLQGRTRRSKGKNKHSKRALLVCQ

[3] = biological target: GST-CDK6 (cyclin-dependent kinase 6) (UniProt Q00534); assay: as above
[4] = biological target: T2, deubiquitinating enzyme 3 (DUB3), endogenous (human (endogenous in HCT 116 and LoVo)) (UniProt Q6R6M4); assay: co-IP; endogenous proteins; HCT 116 and LoVo cell lysates immunoprecipitated with IgG, anti-YAP1 or anti-DUB3 antibodies; western blotting
T2 sequence: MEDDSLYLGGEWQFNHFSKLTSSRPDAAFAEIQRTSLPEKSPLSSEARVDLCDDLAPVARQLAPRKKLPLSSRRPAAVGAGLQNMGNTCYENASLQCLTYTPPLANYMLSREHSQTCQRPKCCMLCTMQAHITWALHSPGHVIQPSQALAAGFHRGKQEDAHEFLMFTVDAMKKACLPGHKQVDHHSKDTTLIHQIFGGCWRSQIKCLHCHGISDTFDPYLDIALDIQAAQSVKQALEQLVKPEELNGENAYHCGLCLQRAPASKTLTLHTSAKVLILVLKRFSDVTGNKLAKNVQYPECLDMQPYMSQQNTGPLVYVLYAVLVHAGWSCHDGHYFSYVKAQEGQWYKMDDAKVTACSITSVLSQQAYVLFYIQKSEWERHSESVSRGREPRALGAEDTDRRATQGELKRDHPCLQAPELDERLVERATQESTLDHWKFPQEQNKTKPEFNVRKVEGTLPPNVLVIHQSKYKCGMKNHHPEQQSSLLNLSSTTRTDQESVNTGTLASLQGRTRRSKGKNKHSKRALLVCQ

[5] = biological target: Yes-associated protein 1 (YAP1), endogenous (human (endogenous in HCT 116 and LoVo)) (UniProt P46937); assay: as above

## His-YAP1 (Yes-associated protein 1) (from UniProt P46937 1-504)
[1]
  binding: no binding
[2]
  binding: binds
[3]
  binding: no binding

## cyclin-dependent kinase 6 (CDK6), endogenous (from UniProt Q00534 1-326) (enzyme)
[4]
  binding: binds

B1: deubiquitinating enzyme 3 (DUB3), endogenous (enzyme, UniProt Q6R6M4 1-530)
chain: MEDDSLYLGGEWQFNHFSKLTSSRPDAAFAEIQRTSLPEKSPLSSEARVDLCDDLAPVARQLAPRKKLPLSSRRPAAVGAGLQNMGNTCYENASLQCLTYTPPLANYMLSREHSQTCQRPKCCMLCTMQAHITWALHSPGHVIQPSQALAAGFHRGKQEDAHEFLMFTVDAMKKACLPGHKQVDHHSKDTTLIHQIFGGCWRSQIKCLHCHGISDTFDPYLDIALDIQAAQSVKQALEQLVKPEELNGENAYHCGLCLQRAPASKTLTLHTSAKVLILVLKRFSDVTGNKLAKNVQYPECLDMQPYMSQQNTGPLVYVLYAVLVHAGWSCHDGHYFSYVKAQEGQWYKMDDAKVTACSITSVLSQQAYVLFYIQKSEWERHSESVSRGREPRALGAEDTDRRATQGELKRDHPCLQAPELDERLVERATQESTLDHWKFPQEQNKTKPEFNVRKVEGTLPPNVLVIHQSKYKCGMKNHHPEQQSSLLNLSSTTRTDQESVNTGTLASLQGRTRRSKGKNKHSKRALLVCQ
[5]
  binding: binds
